# The other results are listed elsewhere or left out. Values were computed here from the reads of four pooled replicates and scatter widely.
# Target: T1, Pho4 (S. cerevisiae) (UniProt P07270)
# T1 sequence: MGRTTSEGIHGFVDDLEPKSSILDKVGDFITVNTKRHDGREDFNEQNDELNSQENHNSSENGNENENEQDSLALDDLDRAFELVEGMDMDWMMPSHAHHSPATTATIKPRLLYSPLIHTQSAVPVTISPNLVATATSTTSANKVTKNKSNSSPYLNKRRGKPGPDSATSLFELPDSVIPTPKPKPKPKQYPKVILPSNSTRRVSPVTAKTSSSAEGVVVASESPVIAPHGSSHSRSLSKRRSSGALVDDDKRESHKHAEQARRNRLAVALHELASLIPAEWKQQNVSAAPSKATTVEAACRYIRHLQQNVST
# Assay: relative binding free energy (BET-seq); higher = weaker binding
# Details: reference: library average
row,Sequence,relative binding free energy
1,TTATACACGTGTTATT,0.16 kcal/mol
2,GCGTGCACGTGGGTAC,-0.14 kcal/mol
3,TTATGCACGTGTTTTC,0 kcal/mol
4,GGGTTCACGTGTTCGA,0.31 kcal/mol
5,ATGCGCACGTGAGGAG,-0.05 kcal/mol
6,TATTTCACGTGGGACA,0.16 kcal/mol
7,GTTCGCACGTGGGTTG,-0.09 kcal/mol
8,ATGGGCACGTGTCTTT,-0.13 kcal/mol
9,GTTTACACGTGGAGCT,0.19 kcal/mol
10,ATATACACGTGTGATG,0.07 kcal/mol
11,TTTTCCACGTGGTGGG,0.02 kcal/mol
12,GGTGGCACGTGTCTGG,0.02 kcal/mol
13,GCGGTCACGTGTAAGT,0.34 kcal/mol
14,AAGGCCACGTGGGTGA,-0.2 kcal/mol
15,CGTTGCACGTGGGAGA,-0.05 kcal/mol
16,GTGTACACGTGAGTTG,0.27 kcal/mol
17,ACGTCCACGTGGTGGG,-0.07 kcal/mol
18,GGCCGCACGTGTTGGG,0.05 kcal/mol
19,TCTGGCACGTGGTGAA,-0.12 kcal/mol
20,GGAGTCACGTGGGTCT,-0.04 kcal/mol
21,GATAACACGTGGAGTG,-0.05 kcal/mol
22,TCAGTCACGTGGGCAG,-0.04 kcal/mol
23,TTATTCACGTGTGAAG,0.3 kcal/mol
24,TTAGTCACGTGACATG,0.3 kcal/mol
25,TATTTCACGTGCTTGA,0.18 kcal/mol

row,Sequence,relative binding free energy
1,TGTGACACGTGCGGCT,-0.08 kcal/mol
2,TGTTTCACGTGGTTGT,0.24 kcal/mol
3,CATGGCACGTGTGGGC,-0.17 kcal/mol
4,ATTGACACGTGTTTGA,-0.02 kcal/mol
5,TGCTCCACGTGAGGGT,0.2 kcal/mol
6,CATTGCACGTGGGTTC,-0.04 kcal/mol
7,GGTACCACGTGGTATG,-0.06 kcal/mol
8,TTAGTCACGTGTGACT,0.08 kcal/mol
9,AGGGCCACGTGTTGAG,-0.06 kcal/mol
10,TGACACACGTGGTTTT,0.04 kcal/mol
11,GTCTACACGTGGGTAG,-0.05 kcal/mol
12,TATTGCACGTGAGGGC,0.11 kcal/mol
13,TAGTGCACGTGGATCA,-0.02 kcal/mol
14,TAATGCACGTGACTTG,0.18 kcal/mol
15,GCTAGCACGTGGTTTG,-0.09 kcal/mol
16,GGGTTCACGTGGTAGT,0.36 kcal/mol
17,TTCATCACGTGGAAGG,0.23 kcal/mol
18,TGTGGCACGTGAGACT,0.16 kcal/mol
19,GATTGCACGTGGAGTA,0.04 kcal/mol
20,ATCTGCACGTGTATTT,-0.03 kcal/mol
21,AGTGTCACGTGACCGT,0.24 kcal/mol
22,TGATACACGTGTGTGC,0.01 kcal/mol
23,TAAGACACGTGTTAGT,0.06 kcal/mol
24,TGGGGCACGTGAAGGG,0.15 kcal/mol
25,TTCGTCACGTGGTTGT,0.07 kcal/mol

row,Sequence,relative binding free energy
1,AGAGTCACGTGCGTTT,0.1 kcal/mol
2,CGTTTCACGTGTGGCG,0.06 kcal/mol
3,AAGTTCACGTGAGGTC,0.46 kcal/mol
4,AATGGCACGTGCGGTA,-0.17 kcal/mol
5,TAGAACACGTGGAAGG,0.06 kcal/mol
6,AGGTGCACGTGCGTTT,-0.15 kcal/mol
7,CTAGTCACGTGTTGTC,0.1 kcal/mol
8,GATTGCACGTGGGCGA,-0.01 kcal/mol
9,AGTATCACGTGGGTTG,-0.12 kcal/mol
10,ATGAGCACGTGATTGG,0.1 kcal/mol
11,GGGAGCACGTGGCTGT,-0.1 kcal/mol
12,GGGGACACGTGGTCTG,-0.02 kcal/mol
13,GGTAGCACGTGAGGAG,0.08 kcal/mol
14,AGATTCACGTGTTTCT,0.24 kcal/mol
15,TGAGACACGTGGGTTC,0.02 kcal/mol
16,GGTGGCACGTGAAATA,0.26 kcal/mol
17,GTTTCCACGTGTGATG,0.38 kcal/mol
18,GGTTTCACGTGTCCTT,0.27 kcal/mol
19,TGTTCCACGTGGCGTG,-0.01 kcal/mol
20,TTTTACACGTGGAGCG,0.08 kcal/mol
21,TTAAGCACGTGGAATG,-0.05 kcal/mol
22,CGGCGCACGTGAGGTT,0.1 kcal/mol
23,GTGTCCACGTGTAGGG,0.09 kcal/mol
24,TTCGGCACGTGTTGGA,0 kcal/mol
25,TTTGGCACGTGAGCTG,0.15 kcal/mol

row,Sequence,relative binding free energy
1,ACTGGCACGTGAGGTT,0.23 kcal/mol
2,GAATTCACGTGGGCAG,0.4 kcal/mol
3,TAGCACACGTGGGGGA,-0.2 kcal/mol
4,TTATGCACGTGGATCG,0.01 kcal/mol
5,AGGCTCACGTGTCGGT,0.25 kcal/mol
6,TAGTTCACGTGTAGCA,0.37 kcal/mol
7,GGTGGCACGTGCTAGC,-0.09 kcal/mol
8,TGCAGCACGTGCGGGA,-0.1 kcal/mol
9,TGTAGCACGTGTATTG,-0.15 kcal/mol
10,GTAGGCACGTGGCTAA,-0.1 kcal/mol
11,GGCTGCACGTGCTGTG,0.06 kcal/mol
12,CATTACACGTGGGGTG,-0.01 kcal/mol
13,GTTGGCACGTGTGAGT,0.07 kcal/mol
14,AAGGGCACGTGGAGGG,-0.25 kcal/mol
15,TGGAACACGTGTAATG,0.07 kcal/mol
16,TTGGACACGTGGTGTC,0.02 kcal/mol
17,TAAGCCACGTGATTTT,0.2 kcal/mol
18,AAGGCCACGTGGTTGA,-0.1 kcal/mol
19,CGGTTCACGTGTTTGG,0.24 kcal/mol
20,AAGTACACGTGGGGGA,0.01 kcal/mol
21,GGTGGCACGTGCGGGC,0.05 kcal/mol
22,ATAGGCACGTGAGCTG,0.16 kcal/mol
23,TGGTTCACGTGTGGTG,0.35 kcal/mol
24,GGTTGCACGTGTCTTA,0.15 kcal/mol
25,CGAGGCACGTGGTGGT,-0.15 kcal/mol

row,Sequence,relative binding free energy
1,CGAAACACGTGAGGGG,0.22 kcal/mol
2,CGGGACACGTGGGTTT,-0.06 kcal/mol
3,GTTTGCACGTGATGCG,0.06 kcal/mol
4,TGGCACACGTGTATGT,0.07 kcal/mol
5,TCGTGCACGTGTTGTG,0.03 kcal/mol
6,CGGGGCACGTGGTTCT,-0.22 kcal/mol
7,CTACGCACGTGGTGGT,-0.3 kcal/mol
8,GTGCTCACGTGTGATT,0.14 kcal/mol
9,GGACGCACGTGTCGGG,-0.12 kcal/mol
10,GGAGACACGTGTGTAG,0.01 kcal/mol
11,TGGCGCACGTGTGTTA,0.05 kcal/mol
12,TATTGCACGTGCAGTT,0.02 kcal/mol
13,TCGGGCACGTGTGCGT,-0.06 kcal/mol
14,ATGGGCACGTGAGCGA,-0.05 kcal/mol
15,TCTGTCACGTGTAGGC,0.06 kcal/mol
16,GATTACACGTGGGAGG,0.17 kcal/mol
17,AGGAGCACGTGCTTGT,-0.15 kcal/mol
18,GTTATCACGTGGTAAG,0.14 kcal/mol
19,TTGATCACGTGTTGAG,0.15 kcal/mol
20,GTTGGCACGTGGTTGG,-0.01 kcal/mol
21,GCATACACGTGAAGGT,0.48 kcal/mol
22,GTTGTCACGTGAATGC,0.21 kcal/mol
23,GCTGTCACGTGTCTGG,0.21 kcal/mol
24,ACTTTCACGTGGGTGG,0.15 kcal/mol
25,GGAACCACGTGGTTGG,-0.09 kcal/mol

row,Sequence,relative binding free energy
1,GGGTGCACGTGCTTCA,0.13 kcal/mol
2,GGGCTCACGTGAGTGC,0.41 kcal/mol
3,AGGCTCACGTGGGTCG,-0.04 kcal/mol
4,TAATACACGTGTCGGT,0.1 kcal/mol
5,GTTGACACGTGCGGGA,-0.04 kcal/mol
6,TTGTCCACGTGGAGTG,-0.02 kcal/mol
7,GTACGCACGTGATGTT,0 kcal/mol
8,AGTGACACGTGTGTTA,0.15 kcal/mol
9,TAAGTCACGTGGTGTG,0.03 kcal/mol
10,TGCGGCACGTGGGCTG,-0.28 kcal/mol
11,GGTCGCACGTGGAGGG,-0.03 kcal/mol
12,TATGTCACGTGGTCAT,0 kcal/mol
13,TATTGCACGTGATGGC,0.12 kcal/mol
14,TAGCTCACGTGTGGAT,0.17 kcal/mol
15,TGGACCACGTGTTTAT,-0.08 kcal/mol
16,TAAGACACGTGGTGTA,-0.09 kcal/mol
17,TCTAACACGTGTGGGA,0.13 kcal/mol
18,TTTAACACGTGGTCGT,0.01 kcal/mol
19,TTGCGCACGTGAGGAG,0.08 kcal/mol
20,TTCGTCACGTGGTGCG,-0.05 kcal/mol
21,GGCTGCACGTGTTGAG,0.2 kcal/mol
